Test results from PubChem BioAssay (NCI).
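Grown in 96-well plates, cells were treated for 48 hours with each compound at five concentrations. Insufficient inhibition: endpoint recorded as highest concentration tested. GI50 = concentration required for 50% inhibition of growth. TGI marks complete inhibition of growth.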

system: NCI-H322M lung; experiment: NCI-60 cell line screen, 48 h

Row | SMILES | TGI [µM] | GI50 [µM]
1 | COc1cc([C@@H]2OC(=O)C3C2C(=O)O[C@H]3c2ccc(O)c(OC)c2)ccc1O (stereo partly specified) | > 100 | 
2 | C=C1C(=O)O[C@@H]2CC(CO)=C([C@@H](C)CCCO)[C@@H](OC(=O)/C(C)=C\C)[C@H]12 | > 83.2 | 
3 | NNC(=O)c1cc([N+](=O)[O-])ccc1NC(=O)C12CC3CC(CC(C3)C1)C2 | 46.4 | 
4 | Cc1c(NC(=O)Nc2c(Cl)cccc2Cl)c(=O)n(-c2ccccc2)n1C | > 100 | 
5 | O=NN1CCN=C1c1ccc([N+](=O)[O-])cc1 | > 100 | 
6 | Clc1cc(OCc2nn3c(Cc4ccccc4)nnc3s2)c(Cl)cc1OCc1nn2c(Cc3ccccc3)nnc2s1 | > 100 | 
7 | O=C(OCc1ccccc1)c1ccc(NCc2cc(O)ccc2O)cc1 | 23.2 | 
8 | O=C1CC(Cc2n[nH]c3c2CCCC3)CC(=O)N1 | > 100 | 
9 | CC(=Nc1cccc(Cl)c1)c1ccncc1 | > 100 | 
10 | CCC[CH2][Sn]([CH2]CCC)([O]C(=O)c1cc(F)ccc1F)[O]C(=O)c1cc(F)ccc1F | 3.29 | 1.79
11 | COc1cc(NCCC(=O)O)c2ncccc2c1 | > 100 | 
12 | Cc1cccc(Nc2nc3ccccc3nc2NS(=O)(=O)c2ccccc2)c1 | > 100 | 
13 | CCOC(=O)[C@@H]1ON2O[C@@H](OC3CCCCC3c3ccccc3)C[C@H]3OC(=O)[C@@H]1C32 (stereo partly specified) | > 100 | 
14 | CC1=CC(C)(C)Nc2ccc(Cc3ccc4c(c3)C(C)=CC(C)(C)N4)cc21 | > 100 | 24.4
15 | COc1c(B(O)O)cccc1-c1nc2ccc3[nH]ncc3c2c2c1CCCC2 | 13.3 | 2.64
16 | COC(=O)c1sc2c(c1C(=O)OC)C(=NC(C)(C)C)SC2=NC(C)(C)C | 51.1 | 
17 | NNC(=O)CCc1ccc2ccc3ccccc3c2c1 | > 100 | 
18 | CSc1ncc2c(C#N)c3[nH]c4ccccc4n3c(=O)c2n1 | > 100 | 
19 | COC(=O)C12C34C=CC5(CCC6(C=CC1(CC3)O6)C52C(=O)OC)O4 (stereo unspecified) | > 100 | 
20 | Cc1ccc(C2[C@H]3C(=O)N(c4ccc(Cc5ccc(N6C(=O)[C@@H]7ON(c8ccccc8)C(c8ccc(C)cc8)[C@@H]7C6=O)cc5)cc4)C(=O)[C@H]3ON2c2ccccc2)cc1 (stereo partly specified) | > 100 | 
21 | CC1CC(=NC2CCCCC2)Nc2ccccc2N1Cc1ccccc1 (stereo unspecified) | 26.5 | 

Row | SMILES | TGI [µM] | GI50 [µM]
22 | COC(=O)c1ccc(C(=O)OC)c2nc3cc(Cl)ccc3nc12 | > 100 | 
23 | CCCCCCCCCCCCCCCCCCOCC(C[N+]1(C)CCC(O)CC1)OCC (stereo unspecified) | 23.4 | 
24 | CC1=NN(c2cccc(Cl)c2)C(=O)/C1=C\C=C\c1ccccc1 | > 100 | 28.1
25 | C[C@@H](NC(=O)Cn1c(Cl)nc2ccccc21)c1ccccc1 | > 100 | 
26 | CC(C)c1[nH]nc2c(NCc3ccc(-c4ccccn4)cc3)nc(SCCN(C)C)nc12 | 10 | 0.0608
27 | c1csc(-c2ccc(CNc3c4ccccc4nc4ccccc34)cc2)c1 | 2.97 | 1.58
28 | O=C(Sc1n[nH]c(=O)[nH]c1=O)c1cccc2nc3ccccc3nc12 | 83.4 | 
29 | COc1cc2c3c(n(CCN4CCOCC4)c(=O)c2cc1OC)-c1ccccc1C3=O | > 100 | > 100
30 | CC(=O)CCc1ccc(Oc2c3c(nc4ccccc24)OCC3)cc1 | > 100 | 86.1
31 | O=c1cc(-c2ccccc2)oc2cc(OCCCCCN3CCOCC3)cc(O)c12 | > 100 | > 100
32 | CN(C)C(=S)/N=c1\ssc(=S)n1Cc1ccco1 | > 100 | 
33 | Cc1c(Cl)cccc1NC(=O)c1sc2nc3c(cc2c1N)C(=O)CCC3 | > 100 | 0.219
34 | Nn1c(-c2cccc(Cl)c2)nc2ccccc2c1=O | > 100 | 
35 | COc1cc2c(NC3CCN(C(C)C)CC3)nc(C3CCCCC3)nc2cc1OCCCN1CCCC1 | 22 | 8.52
36 | O=C(CSC(c1ccccc1)c1ccccc1)N/N=C/c1ccccc1Cl | > 92.4 | 25.8
37 | O=C1C(Cl)=C(Cl)C(=O)N1c1cccc(C(F)(F)F)c1 | > 100 | 
38 | C1=Nc2ccc(cc2)-c2ccc(cc2)N=Cc2ccc(cc2)OCc2cccc(n2)COc2ccc1cc2 | > 100 | 
39 | Cc1ccc2c(c1)C=CC1(O2)N(c2ccccc2)C(=S)OC1(C)C (stereo unspecified) | > 100 | 
40 | CN(C)c1cc2c(Nc3ccc4c(cnn4Cc4ccccc4)c3)ncnc2cn1 | > 20.6 | 0.523
41 | CSc1nnc(-c2cc3c([nH]c4ccccc43)c(-c3cccc(O)c3)n2)n1-c1ccc(C)cc1 | > 100 | 7.09
42 | COc1cc2c(c(OC)c1OC)C(=O)[C@@H](O)[C@H]2NC(N)=O | > 100 | 
